# From the BET-seq Pho4 binding data (Le et al. 2018)
# Some of the results follow. Values were computed here from the reads of four pooled replicates and scatter widely.
# Target: T1, Pho4 (S. cerevisiae) (UniProt P07270)
# T1 sequence: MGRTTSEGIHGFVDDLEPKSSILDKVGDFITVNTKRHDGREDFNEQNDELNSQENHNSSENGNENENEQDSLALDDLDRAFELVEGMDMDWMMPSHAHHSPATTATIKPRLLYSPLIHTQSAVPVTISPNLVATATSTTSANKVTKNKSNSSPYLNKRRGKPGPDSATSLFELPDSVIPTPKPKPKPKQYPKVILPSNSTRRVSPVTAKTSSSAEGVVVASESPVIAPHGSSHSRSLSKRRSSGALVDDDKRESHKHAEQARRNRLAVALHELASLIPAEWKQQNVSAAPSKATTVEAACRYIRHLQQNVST
# Experiment: relative binding free energy (BET-seq); higher = weaker binding
# Settings: reference: library average
row,Sequence,relative binding free energy
1,CTGGGCACGTGTCCGG,-0.12 kcal/mol
2,GGGTTCACGTGATATG,0.3 kcal/mol
3,TGCTTCACGTGTGGAG,0.34 kcal/mol
4,TCTGTCACGTGATTCG,0.41 kcal/mol
5,CTCGACACGTGGGGTT,-0.13 kcal/mol
6,GTTGCCACGTGGTTAA,-0.13 kcal/mol
7,TGGCGCACGTGGTCGT,-0.2 kcal/mol
8,TTTTCCACGTGGAGTA,0.07 kcal/mol
9,TTTTTCACGTGATATG,0.37 kcal/mol
10,ATTAACACGTGAAAGG,0.28 kcal/mol
11,TTCTACACGTGGGTTG,-0.06 kcal/mol
12,ACGGTCACGTGGCGGT,0.02 kcal/mol
13,GTATCCACGTGGTTTT,0.1 kcal/mol
14,TGATTCACGTGTTGCA,0.12 kcal/mol
15,TGCGGCACGTGGCTTT,-0.21 kcal/mol
16,ATTATCACGTGTATCT,0.04 kcal/mol
17,GGGTGCACGTGCTGGT,-0.04 kcal/mol
18,TTTAGCACGTGTTGGT,-0.12 kcal/mol
19,GATTGCACGTGTTTCT,0.05 kcal/mol
20,GTAGTCACGTGGGTCA,-0.13 kcal/mol
21,GCTGTCACGTGAGTTG,0.3 kcal/mol
22,AATGTCACGTGATTAT,0.3 kcal/mol
23,TGTCACACGTGGTGTG,-0.01 kcal/mol
24,TTATACACGTGTCGGT,0.01 kcal/mol
25,TACCTCACGTGTTTTT,0.32 kcal/mol
26,GGTGGCACGTGTATTC,0.11 kcal/mol

row,Sequence,relative binding free energy
1,GATGGCACGTGGGAGA,-0.25 kcal/mol
2,AAGTACACGTGTTGTT,0.08 kcal/mol
3,TGCGGCACGTGTAGTT,0.02 kcal/mol
4,CGGGGCACGTGGAGAA,-0.05 kcal/mol
5,TTAGGCACGTGCTTAT,-0.13 kcal/mol
6,ATAAGCACGTGGTCTG,-0.27 kcal/mol
7,GATGGCACGTGCAGGC,0.02 kcal/mol
8,TAGTTCACGTGATGCG,0.31 kcal/mol
9,CGGGGCACGTGGGGAG,-0.15 kcal/mol
10,GAGTGCACGTGTGAGC,0.17 kcal/mol
11,AGCGTCACGTGATGTT,0.21 kcal/mol
12,GGGTACACGTGTGGGC,0.24 kcal/mol
13,AGTATCACGTGGCATG,-0.09 kcal/mol
14,GAGGTCACGTGCTATT,0.19 kcal/mol
15,GTTGCCACGTGTTGAG,-0.06 kcal/mol
16,ACTTTCACGTGTGTGA,0.27 kcal/mol
17,GAGAACACGTGGGAGG,-0.05 kcal/mol
18,TAATACACGTGGTATA,-0.02 kcal/mol
19,TTATTCACGTGGGACT,0.16 kcal/mol
20,ATTGGCACGTGATTAG,0.04 kcal/mol
21,TCGTGCACGTGTGCAG,-0.03 kcal/mol
22,TGAGACACGTGGGAGG,-0.09 kcal/mol
23,GGGAGCACGTGTGATG,-0.1 kcal/mol
24,ATAAACACGTGTGGGG,0.15 kcal/mol
25,GGTGTCACGTGCTGAT,-0.01 kcal/mol
26,GGTATCACGTGGAGCT,0.14 kcal/mol

row,Sequence,relative binding free energy
1,GTATACACGTGGTTTT,0.23 kcal/mol
2,AGTTGCACGTGCAGTT,0.07 kcal/mol
3,TGGTGCACGTGCACGG,-0.12 kcal/mol
4,TGTGGCACGTGGGCAC,-0.16 kcal/mol
5,GGGTACACGTGTATTT,0.23 kcal/mol
6,CATAACACGTGGGTGT,-0.15 kcal/mol
7,GGGTACACGTGTTGAA,0.06 kcal/mol
8,ATCCTCACGTGTAGGT,0.27 kcal/mol
9,TTCGGCACGTGATGGG,-0.01 kcal/mol
10,ATCTACACGTGGGGCT,0.26 kcal/mol
11,CAAGGCACGTGGATGG,-0.03 kcal/mol
12,GGTGTCACGTGGTATG,0.12 kcal/mol
13,GACTTCACGTGTAGTT,0.33 kcal/mol
14,GTAGACACGTGCTTTT,0.11 kcal/mol
15,ATGAACACGTGTTGGT,0.16 kcal/mol
16,TGGCGCACGTGGCTAG,-0.16 kcal/mol
17,TAGGTCACGTGGTCGT,0.04 kcal/mol
18,TATTTCACGTGGAAGA,0.28 kcal/mol
19,TTAATCACGTGGTTAA,0.03 kcal/mol
20,ATTATCACGTGGGCGA,0 kcal/mol
21,GATTTCACGTGTCGGG,0.44 kcal/mol
22,TTTTACACGTGAATTT,0.17 kcal/mol
23,AGTATCACGTGTTTGG,0.14 kcal/mol
24,TGAAGCACGTGTGAAG,0.04 kcal/mol
25,TCTTTCACGTGTGTTC,0.14 kcal/mol
26,TTTTCCACGTGTATTG,0 kcal/mol

row,Sequence,relative binding free energy
1,TGTTACACGTGCGGGG,0.01 kcal/mol
2,GGTGCCACGTGGGTAG,-0.13 kcal/mol
3,AGTAACACGTGGTGCT,-0.18 kcal/mol
4,TGTTGCACGTGATCAG,0.07 kcal/mol
5,TGTAACACGTGTGGTG,-0.01 kcal/mol
6,TTGGCCACGTGGAGGT,-0.09 kcal/mol
7,CTTTACACGTGTATTA,0.16 kcal/mol
8,TAGTGCACGTGAGGCA,0.13 kcal/mol
9,GTTGTCACGTGTCAAG,0.15 kcal/mol
10,GTTATCACGTGGACAT,0.31 kcal/mol
11,ATGTACACGTGGGTGA,-0.18 kcal/mol
12,ATAGGCACGTGGGCTG,-0.34 kcal/mol
13,TACTTCACGTGGTGGT,0.14 kcal/mol
14,AGATGCACGTGGGAAT,0.04 kcal/mol
15,TGAGTCACGTGAAATT,0.32 kcal/mol
16,ACAGTCACGTGTTATT,0.08 kcal/mol
17,GTGGTCACGTGCGTAG,0.1 kcal/mol
18,ACGGTCACGTGCTGGT,-0.12 kcal/mol
19,GGTAACACGTGGAATT,0.11 kcal/mol
20,GTGTCCACGTGTGGAG,0 kcal/mol
21,ACGGGCACGTGGTTGT,-0.1 kcal/mol
22,ATAATCACGTGTGATT,0.27 kcal/mol
23,CTAGGCACGTGCGTGG,-0.19 kcal/mol
24,AACGGCACGTGTTGTG,-0.02 kcal/mol
25,GTATCCACGTGTATGT,0.08 kcal/mol
26,CGAGGCACGTGGGGGT,-0.21 kcal/mol

row,Sequence,relative binding free energy
1,TGCGCCACGTGGTGGT,-0.12 kcal/mol
2,ACGGGCACGTGGGGTC,-0.2 kcal/mol
3,GAGTACACGTGATTTG,0.26 kcal/mol
4,GGTGTCACGTGGTACT,0 kcal/mol
5,GGCCGCACGTGTAGGG,0.04 kcal/mol
6,GATGACACGTGATAGT,0.23 kcal/mol
7,AGTGGCACGTGGATAC,-0.01 kcal/mol
8,TGTTCCACGTGTCTTG,0.03 kcal/mol
9,CCAGGCACGTGGGGCG,-0.18 kcal/mol
10,TGGAACACGTGGCGGG,0.05 kcal/mol
11,CCTTGCACGTGTGTTA,0.15 kcal/mol
12,GTATTCACGTGTCGAT,0.22 kcal/mol
13,TGTTTCACGTGCGAGA,0.14 kcal/mol
14,GCCGGCACGTGAAGGG,0.12 kcal/mol
15,GCGCACACGTGGGAGG,0.04 kcal/mol
16,AGGCTCACGTGGGTTA,0.13 kcal/mol
17,TTGCACACGTGGAGGT,-0.05 kcal/mol
18,GTAAGCACGTGTTAGA,-0.07 kcal/mol
19,GTCGTCACGTGCTGAG,0.11 kcal/mol
20,TGATACACGTGGGTGC,-0.17 kcal/mol
21,AATTGCACGTGTGCGG,0.05 kcal/mol
22,TGTAACACGTGTGACG,0.11 kcal/mol
23,CGTGACACGTGTGGTT,-0.03 kcal/mol
24,GTGGTCACGTGTGAGG,0.17 kcal/mol
25,TGATGCACGTGGTTTA,0.05 kcal/mol
26,TTTTACACGTGGTGGA,0.01 kcal/mol

row,Sequence,relative binding free energy
1,TTTAGCACGTGAGTCG,0.03 kcal/mol
2,GTTGTCACGTGGAGTA,0.18 kcal/mol
3,GCAGTCACGTGTTGGG,0.09 kcal/mol
4,TTGGACACGTGTTTTG,0 kcal/mol
5,TTTGCCACGTGAGTTG,0.12 kcal/mol
6,ATGCTCACGTGGTTGA,0.1 kcal/mol
7,CTGTACACGTGATGAT,0.22 kcal/mol
8,TGTCTCACGTGAAGTT,0.3 kcal/mol
9,AGAGGCACGTGTTTCG,-0.11 kcal/mol
10,GGGATCACGTGGGTAT,0.11 kcal/mol
11,AAATGCACGTGAGTTA,0.25 kcal/mol
12,GGGATCACGTGTGAGT,0.29 kcal/mol
13,CATTACACGTGATGTT,0.22 kcal/mol
14,GCTAACACGTGTGGTT,0.23 kcal/mol
15,CTGGTCACGTGGGGGG,-0.05 kcal/mol
16,TATTTCACGTGCAGGT,0.16 kcal/mol
17,TGTCTCACGTGGGGGA,0.1 kcal/mol
18,TTTGGCACGTGCTAGA,-0.25 kcal/mol
19,GGGTTCACGTGCATTG,0.32 kcal/mol
20,ATTTCCACGTGTGGGT,0.07 kcal/mol
21,CAGCGCACGTGAGGGG,0.12 kcal/mol
22,ATTACCACGTGGAGGG,-0.06 kcal/mol
23,TTCTACACGTGCTGGT,0.12 kcal/mol
24,TAATTCACGTGTTAAG,0.21 kcal/mol
25,CGTAACACGTGTGTGG,-0.1 kcal/mol
26,AATTTCACGTGTTAGA,0.23 kcal/mol

row,Sequence,relative binding free energy
1,CGATGCACGTGGTTGG,0.11 kcal/mol
2,GTAAGCACGTGTAGTT,0.05 kcal/mol
3,TATCTCACGTGAGCGG,0.48 kcal/mol
4,GTTGTCACGTGGTACA,0.12 kcal/mol
5,TAATACACGTGAGTTT,0.25 kcal/mol
6,GTGACCACGTGGGGTC,-0.09 kcal/mol
7,TGGATCACGTGGTTGT,0.09 kcal/mol
8,AGGGGCACGTGTATGG,-0.02 kcal/mol
9,TGGAGCACGTGGAAAA,0.13 kcal/mol
10,TAAAGCACGTGTTCGG,-0.07 kcal/mol
11,TGCTACACGTGTAAGT,0.21 kcal/mol
12,GGTGGCACGTGAAGCG,0.02 kcal/mol
13,TGACTCACGTGGGTGT,-0.05 kcal/mol
14,ATGGGCACGTGGCGGC,-0.21 kcal/mol
15,ATAGTCACGTGAATTG,0.22 kcal/mol
16,TTGTTCACGTGATGGA,0.36 kcal/mol
17,CTTTTCACGTGCTGGG,0.22 kcal/mol
18,CTCAGCACGTGGGTGT,-0.21 kcal/mol
19,AGGCTCACGTGGGATG,0.1 kcal/mol
20,GTTGACACGTGTCGGT,0.02 kcal/mol
21,GATAGCACGTGGGAGA,-0.16 kcal/mol
22,TTGTTCACGTGAATTA,0.33 kcal/mol
23,TTGAACACGTGCGGGT,0 kcal/mol
24,GAGGGCACGTGCGTCG,-0.03 kcal/mol
25,TTTTCCACGTGGGTGG,-0.03 kcal/mol
26,GGTTCCACGTGAGTGG,0.23 kcal/mol

row,Sequence,relative binding free energy
1,GACGTCACGTGAGGTT,0.31 kcal/mol
2,TGAGGCACGTGGGGCG,-0.19 kcal/mol
3,AAAAGCACGTGGTTGG,-0.03 kcal/mol
4,GTTTCCACGTGTCGGG,0.02 kcal/mol
5,TTCAGCACGTGTTACT,0.03 kcal/mol
6,TAGTTCACGTGGTGCA,0.06 kcal/mol
7,ACTAGCACGTGGGTGG,-0.28 kcal/mol
8,GGCTGCACGTGGTTAG,-0.08 kcal/mol
9,GTAAGCACGTGTCTGT,-0.06 kcal/mol
10,GGCGGCACGTGAGTGT,0.19 kcal/mol
11,GGGATCACGTGTGATG,0.32 kcal/mol
12,TCGTACACGTGTAGGG,0.03 kcal/mol
13,AGTGACACGTGGGTTT,-0.17 kcal/mol
14,TGTGACACGTGGCGGG,-0.03 kcal/mol
15,TTAAACACGTGTCGTT,0.04 kcal/mol
16,GGGAGCACGTGCGGAA,-0.07 kcal/mol
17,GAATGCACGTGGTAGG,-0.05 kcal/mol
18,CTGTTCACGTGTTGTT,0.26 kcal/mol
19,AGGATCACGTGGTGTC,0.01 kcal/mol
20,TTAGACACGTGATTAT,0.07 kcal/mol
21,TGTTTCACGTGTGTCC,0.2 kcal/mol
22,GTGAGCACGTGGAGTT,0.1 kcal/mol
23,TGCAGCACGTGGGGCA,-0.25 kcal/mol
24,GAGCGCACGTGCGGGG,-0.21 kcal/mol
25,CGGGTCACGTGAGGAT,0.32 kcal/mol
26,GCCTTCACGTGTTTTG,0.33 kcal/mol

row,Sequence,relative binding free energy
1,GACTGCACGTGAGTTG,0.34 kcal/mol
2,AGGGGCACGTGTACGA,0.04 kcal/mol
3,TTTATCACGTGAGGAC,0.24 kcal/mol
4,AGTTTCACGTGGTTAA,0.17 kcal/mol
5,TAATGCACGTGATGGA,0.11 kcal/mol
6,AATTTCACGTGCGTTA,0.16 kcal/mol
7,GCGTTCACGTGATATG,0.27 kcal/mol
8,TTAACCACGTGTTTGG,-0.12 kcal/mol
9,GTGCTCACGTGGTAAG,0.17 kcal/mol
10,GTTATCACGTGCAGGT,0.14 kcal/mol
11,TTCTACACGTGTTGTG,0.06 kcal/mol
12,CGGATCACGTGTGGTG,0.22 kcal/mol
13,CGTGTCACGTGGTCAT,0.01 kcal/mol
14,GGTCGCACGTGGTGCT,-0.1 kcal/mol
15,GCTGGCACGTGGTAGA,-0.18 kcal/mol
16,AATGGCACGTGGCGGG,-0.18 kcal/mol
17,CTTGTCACGTGGGAAG,-0.04 kcal/mol
18,CAGGGCACGTGTGGAA,0.05 kcal/mol
19,ATACGCACGTGTAGGG,-0.08 kcal/mol
20,CTGGTCACGTGATGGA,0.19 kcal/mol
21,GTGTACACGTGGTCTA,-0.12 kcal/mol
22,GGCTTCACGTGTGTTA,0.32 kcal/mol
